# From the supplement of paper PMC8728848
# The other results are listed elsewhere or left out.
# B1: P-Selectin (Mus musculus), Q01102 (protein)
# chain: MAGCPKGSWTPRLRSVILGGAQLIWFSALISELVNQKEVAAWTYNYSTKAYSWNNSRVFCRRHFTDLVAIQNKNEIAHLNDVIPFFNSYYWIGIRKINNKWTWVGTNKTLTEEAENWADNEPNNKKNNQDCVEIYIKSNSAPGKWNDEPCFKRKRALCYTASCQDMSCSNQGECIETIGSYTCSCYPGFYGPECEYVKECGKVNIPQHVLMNCSHPLGEFSFNSQCTFSCAEGYELDGPGELQCLASGIWTNNPPKCDAVQCQSLEAPPHGTMACMHPIAAFAYDSSCKFECQPGYRARGSNTLHCTGSGQWSEPLPTCEAIACEPPEIPIHGSMDCVPSTGTFGYNSSCTFLCAEGFVLKGNDAIQCADSGQWTAPAPFCEALQCPEFPVPSKAQVNCSDPFGTLTYQSVCSFSCDEGSLLVGASVIRCLATGHWNGAPPECQAVSCAPMLSPENGSMTCVQPLGNSTYKSTCQFMCDEGFYLSGPERLDCSPSGHWTGTPPTCEAIKCPGIFAPEQGNLDCSHVHGEFGVGSICHFSCNEDFELLGSENVECTVSGRWSAPPPTCKGITSLPAPAVRCPALTTPGQGTMSCQHHLGSFGPNTTCYFGCKTGFTLRGANSLRCRASGQWTAVTPMCRAVKCSELHMDTAVAMNCSNPWGNFSYGSTCTFQCPEGQSLNGSVRATCREDGHWSDAMPTCQAGTLTIQEALTYLGGAVASTTGLAVGGTLLALLRKRLRKKDDGKCPLNPHSHLGTYGVFTNAAYDPTP
# Assays:
# Experiment in all cases: glycan array binding signal (z-score within array); higher = stronger binding
# Conditions in all cases: glycan notation: IUPAC condensed, linker removed
# [1] = molecular target: Fuc(a1-2)[GalNAc(a1-3)]Gal(b1-4)GlcNAc
# How it was run: (§1)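 The binding signal is a Z-score computed within each array. Data were drawn from 3228 arrays in the Consortium for Functional Glycomics database, restricted to those with a known protein sequence. Scores were averaged over arrays of the same protein sequence at different concentrations or buffers, and over linkers, and negative values can be taken as non-binding.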
# [2] = molecular target: Fuc(a1-2)[GalNAc(a1-3)]Gal(b1-4)[Fuc(a1-3)]GlcNAc
# How it was run: as §1
# [3] = molecular target: Fuc(a1-2)[GalNAc(a1-4)]Gal(b1-4)GlcNAc
# How it was run: as §1
# [4] = molecular target: Fuc(a1-2)[GalNAc(b1-3)]Gal
# How it was run: as §1
# Fuc(a1-3)GlcNAc = molecular target: Fuc(a1-3)GlcNAc
# How it was run: as §1
# [5] = molecular target: Fuc(a1-3)[Gal(b1-4)]Glc6S
# How it was run: as §1
# [6] = molecular target: Fuc(a1-3)[Gal(b1-4)]GlcNAc
# How it was run: as §1
# [7] = molecular target: Fuc(a1-3)[Gal(b1-4)]GlcNAc(b1-2)Man(a1-3)[Fuc(a1-3)[Gal(b1-4)]GlcNAc(b1-2)Man(a1-6)]Man(b1-4)GlcNAc(b1-4)GlcNAc
# How it was run: as §1
# [8] = molecular target: Fuc(a1-3)[Gal(b1-4)]GlcNAc(b1-2)Man(a1-6)[Gal(b1-4)GlcNAc(b1-2)Man(a1-3)]Man(b1-4)GlcNAc(b1-4)GlcNAc
# How it was run: as §1
# [9] = molecular target: Fuc(a1-3)[Gal(b1-4)]GlcNAc(b1-3)Gal(b1-3)[Fuc(a1-4)]GlcNAc
# How it was run: as §1
# [10] = molecular target: Fuc(a1-3)[Gal(b1-4)]GlcNAc(b1-4)Gal(b1-4)[Fuc(a1-3)]GlcNAc
# How it was run: as §1
# [11] = molecular target: Fuc(a1-3)[Gal(b1-4)]GlcNAc(b1-4)Gal(b1-4)[Fuc(a1-3)]GlcNAc(b1-4)Gal(b1-4)[Fuc(a1-3)]GlcNAc
# How it was run: as §1
# [12] = molecular target: Fuc(a1-3)[Gal(b1-4)]GlcNAc6S
# How it was run: as §1
# [13] = molecular target: Fuc(a1-3)[Gal3S(b1-4)]Glc6S
# How it was run: as §1
# [14] = molecular target: Fuc(a1-3)[Gal3S(b1-4)]GlcNAc
# How it was run: as §1
# [15] = molecular target: Fuc(a1-3)[Gal3S(b1-4)]GlcNAc6S
# How it was run: as §1
# [16] = molecular target: Fuc(a1-3)[GalNAc(b1-4)]GlcNAc
# How it was run: as §1
# Fuc(a1-4)GlcNAc = molecular target: Fuc(a1-4)GlcNAc
# How it was run: as §1
# Fuc(b1-3)GlcNAc = molecular target: Fuc(b1-3)GlcNAc
# How it was run: as §1
# Gal(a1-2)Gal = molecular target: Gal(a1-2)Gal
# How it was run: as §1
# Gal(a1-3)Gal = molecular target: Gal(a1-3)Gal
# How it was run: as §1
# Gal(a1-3)Gal(b1-3)GlcNAc = molecular target: Gal(a1-3)Gal(b1-3)GlcNAc
# How it was run: as §1
# Gal(a1-3)Gal(b1-4)Glc = molecular target: Gal(a1-3)Gal(b1-4)Glc
# How it was run: as §1
# Gal(a1-3)Gal(b1-4)GlcNAc = molecular target: Gal(a1-3)Gal(b1-4)GlcNAc
# How it was run: as §1
# [17] = molecular target: Gal(a1-3)Gal(b1-4)[Fuc(a1-3)]GlcNAc
# How it was run: as §1
# Gal(a1-3)GalNAc = molecular target: Gal(a1-3)GalNAc
# How it was run: as §1
# [18] = molecular target: Gal(a1-3)[Gal(a1-4)]Gal(b1-4)GlcNAc
# How it was run: as §1
# Gal(a1-4)Gal(b1-4)Glc = molecular target: Gal(a1-4)Gal(b1-4)Glc
# How it was run: as §1
# Gal(a1-4)Gal(b1-4)GlcNAc = molecular target: Gal(a1-4)Gal(b1-4)GlcNAc
# How it was run: as §1
# Gal(a1-4)GlcNAc = molecular target: Gal(a1-4)GlcNAc
# How it was run: as §1
# Gal(a1-6)Glc = molecular target: Gal(a1-6)Glc
# How it was run: as §1
# Gal(b1-2)Gal = molecular target: Gal(b1-2)Gal
# How it was run: as §1
# Gal(b1-3)Gal = molecular target: Gal(b1-3)Gal
# How it was run: as §1
# Gal(b1-3)Gal(b1-4)GlcNAc = molecular target: Gal(b1-3)Gal(b1-4)GlcNAc
# How it was run: as §1
# Gal(b1-3)GalNAc = molecular target: Gal(b1-3)GalNAc
# How it was run: as §1
# [19] = molecular target: Gal(b1-3)GalNAc(b1-3)Gal(a1-4)Gal(b1-4)Glc
# How it was run: as §1
# [20] = molecular target: Gal(b1-3)GalNAc(b1-4)Gal(b1-4)Glc
# How it was run: as §1
# [21] = molecular target: Gal(b1-3)GalNAc(b1-4)[Neu5Ac(a2-3)]Gal(b1-4)Glc
# How it was run: as §1
# Gal(b1-3)GlcNAc = molecular target: Gal(b1-3)GlcNAc
# How it was run: as §1
# [22] = molecular target: Gal(b1-3)GlcNAc(b1-2)Man(a1-3)[Gal(b1-3)GlcNAc(b1-2)Man(a1-6)]Man(b1-4)GlcNAc(b1-4)GlcNAc
# How it was run: as §1
# [23] = molecular target: Gal(b1-3)GlcNAc(b1-3)Gal(b1-3)GlcNAc
# How it was run: as §1
# [24] = molecular target: Gal(b1-3)GlcNAc(b1-3)Gal(b1-4)Glc
# How it was run: as §1
# [25] = molecular target: Gal(b1-3)GlcNAc(b1-3)Gal(b1-4)GlcNAc
# How it was run: as §1
# [26] = molecular target: Gal(b1-3)[Fuc(a1-4)]GlcNAc
# How it was run: as §1
# [27] = molecular target: Gal(b1-3)[Fuc(a1-4)]GlcNAc(b1-3)Gal(b1-3)[Fuc(a1-4)]GlcNAc
# How it was run: as §1
# [28] = molecular target: Gal(b1-3)[Fuc(a1-4)]GlcNAc(b1-3)Gal(b1-4)GlcNAc
# How it was run: as §1
# [29] = molecular target: Gal(b1-3)[Fuc(a1-4)]GlcNAc(b1-3)Gal(b1-4)[Fuc(a1-3)]GlcNAc
# How it was run: as §1
# [30] = molecular target: Gal(b1-3)[GlcNAc(b1-6)]GalNAc
# How it was run: as §1
# [31] = molecular target: Gal(b1-3)[Neu5Ac(a2-6)]GalNAc
# How it was run: as §1
# [32] = molecular target: Gal(b1-3)[Neu5Ac(a2-6)]GlcNAc(b1-6)Gal(b1-4)Glc
# How it was run: as §1
# [33] = molecular target: Gal(b1-3)[Neu5Ac(b2-6)]GalNAc
# How it was run: as §1
# [34] = molecular target: Gal(b1-4)GalNAc(a1-3)[Fuc(a1-2)]Gal(b1-4)GlcNAc
# How it was run: as §1
# [35] = molecular target: Gal(b1-4)GalNAc(b1-3)[Fuc(a1-2)]Gal(b1-4)GlcNAc
# How it was run: as §1
# Gal(b1-4)Glc = molecular target: Gal(b1-4)Glc
# How it was run: as §1
# Gal(b1-4)Glc6S = molecular target: Gal(b1-4)Glc6S
# How it was run: as §1
# Gal(b1-4)GlcNAc = molecular target: Gal(b1-4)GlcNAc
# How it was run: as §1
# [36] = molecular target: Gal(b1-4)GlcNAc(a1-6)Gal(b1-4)GlcNAc
# How it was run: as §1
# [37] = molecular target: Gal(b1-4)GlcNAc(b1-2)Man(a1-3)[Gal(b1-4)GlcNAc(b1-2)Man(a1-6)]Man(b1-4)GlcNAc(b1-4)GlcNAc
# How it was run: as §1
# [38] = molecular target: Gal(b1-4)GlcNAc(b1-3)Gal(b1-3)GlcNAc
# How it was run: as §1
# [39] = molecular target: Gal(b1-4)GlcNAc(b1-3)Gal(b1-4)Glc
# How it was run: as §1
binder,measurement,setting,value
B1,glycan array binding signal (z-score),[1],-0.287
same,glycan array binding signal (z-score),[2],2.73
same,glycan array binding signal (z-score),[3],-0.542
same,glycan array binding signal (z-score),[4],-0.633
same,glycan array binding signal (z-score),Fuc(a1-3)GlcNAc,-0.465
same,glycan array binding signal (z-score),[5],3.04
same,glycan array binding signal (z-score),[6],-0.027
same,glycan array binding signal (z-score),[7],-0.257
same,glycan array binding signal (z-score),[8],-0.509
same,glycan array binding signal (z-score),[9],-0.183
same,glycan array binding signal (z-score),[10],0.48
same,glycan array binding signal (z-score),[11],0.16
same,glycan array binding signal (z-score),[12],2.1
same,glycan array binding signal (z-score),[13],3.7
same,glycan array binding signal (z-score),[14],2.17
same,glycan array binding signal (z-score),[15],3.95
same,glycan array binding signal (z-score),[16],0.12
same,glycan array binding signal (z-score),Fuc(a1-4)GlcNAc,-0.553
same,glycan array binding signal (z-score),Fuc(b1-3)GlcNAc,-0.63
same,glycan array binding signal (z-score),Gal(a1-2)Gal,-0.719
same,glycan array binding signal (z-score),Gal(a1-3)Gal,-0.535
same,glycan array binding signal (z-score),Gal(a1-3)Gal(b1-3)GlcNAc,-0.649
same,glycan array binding signal (z-score),Gal(a1-3)Gal(b1-4)Glc,-0.705
same,glycan array binding signal (z-score),Gal(a1-3)Gal(b1-4)GlcNAc,-0.157
same,glycan array binding signal (z-score),[17],0.313
same,glycan array binding signal (z-score),Gal(a1-3)GalNAc,-0.445
same,glycan array binding signal (z-score),[18],-0.678
same,glycan array binding signal (z-score),Gal(a1-4)Gal(b1-4)Glc,-0.228
same,glycan array binding signal (z-score),Gal(a1-4)Gal(b1-4)GlcNAc,-0.235
same,glycan array binding signal (z-score),Gal(a1-4)GlcNAc,-0.463
same,glycan array binding signal (z-score),Gal(a1-6)Glc,0.034
same,glycan array binding signal (z-score),Gal(b1-2)Gal,-0.572
same,glycan array binding signal (z-score),Gal(b1-3)Gal,-0.618
same,glycan array binding signal (z-score),Gal(b1-3)Gal(b1-4)GlcNAc,-0.405
same,glycan array binding signal (z-score),Gal(b1-3)GalNAc,-0.399
same,glycan array binding signal (z-score),[19],-0.475
same,glycan array binding signal (z-score),[20],-0.55
same,glycan array binding signal (z-score),[21],-0.302
same,glycan array binding signal (z-score),Gal(b1-3)GlcNAc,-0.591
same,glycan array binding signal (z-score),[22],-0.407
same,glycan array binding signal (z-score),[23],-0.386
same,glycan array binding signal (z-score),[24],-0.261
same,glycan array binding signal (z-score),[25],-0.593
same,glycan array binding signal (z-score),[26],0.104
same,glycan array binding signal (z-score),[27],0.199
same,glycan array binding signal (z-score),[28],0.517
same,glycan array binding signal (z-score),[29],0.285
same,glycan array binding signal (z-score),[30],-0.4
same,glycan array binding signal (z-score),[31],-0.302
same,glycan array binding signal (z-score),[32],-0.325
same,glycan array binding signal (z-score),[33],-0.378
same,glycan array binding signal (z-score),[34],-0.356
same,glycan array binding signal (z-score),[35],-0.454
same,glycan array binding signal (z-score),Gal(b1-4)Glc,-0.42
same,glycan array binding signal (z-score),Gal(b1-4)Glc6S,0.101
same,glycan array binding signal (z-score),Gal(b1-4)GlcNAc,-0.661
same,glycan array binding signal (z-score),[36],-0.328
same,glycan array binding signal (z-score),[37],-0.453
same,glycan array binding signal (z-score),[38],-0.277
same,glycan array binding signal (z-score),[39],-0.318
